Measured values taken from patent US20070299092A1, “Quinone Substituted Quinazoline and Quinoline Kinase Inhibitors” (Wyeth, priority 2004, published 2007).

System: Human umbilical vein endothelial cells (HUVEC)
Assay: HUVEC proliferation assay, VEGF-dependent growth ([3H]-thymidine incorporation)
Assay type: cell-based
Protocol: Cells were plated into 96-well dishes (4000 cells per well) and allowed to attach overnight. HUVEC were rinsed one time with 100 μl of EBMc-V (EBM supplemented with all above components except serum or VEGF), then 50 ul of EBMc-V was added to cells. Compounds were prepared at 200× stocks in DMSO, diluted into EBMc-V media as 4× stocks, then 50 ul added to appropriate wells. Finally, 100 μl of 2×VEGF (100 ng/ml prepared in EBMc-V; final 50 ng/ml VEGF) was added to all VEGF-treated wells. EBMc-V (no VEGF) was added to negative control wells. Parallel compound-treated plates were prepared except that 100 μl of EGM2 media containing 2% serum but lacking VEGF (EGMc-V) was added. Cells were incubated for 4-5 days at 37° C.
DNA synthesis was assessed by thymidine incorporation. Cells were incubated for 5 hours in 1 μCi of [^3H]-thymidine (PerkinElmer) by addition of 10 ul of 0.1 μCi/ul thymidine prepared in PBS to each well. After incubation, media was aspirated and the cells trypsinized and collected onto a mat using a vacuum-based Micro Cell Harvester (Skatron). [^3H]-thymidine was counted in a liquid scintillation counter. Compounds evaluated for ability to inhibit VEGF-dependent growth of human umbilical vein endothelial cells (HUVEC).

COCCOc1cc2ncnc(NC3=CC(=O)C(Oc4ccc(-n5ccnc5)cc4)=CC3=O)c2cc1OC [Example 26, 2-[4-(1H-imidazol-1-yl)phenoxy]-5-{[6-methoxy-7-(2-methoxyethoxy)quinazolin-4-yl]amino}benzo-1,4-quinone]
% Inhibition of VEGF-dependent growth of HUVEC (conc. 100 nM): 10%, −5%, 43%, 9%, 7% [lines of one column] | % Inhibition of VEGF-dependent growth of HUVEC (conc. 1000 nM): 12, 15, 34, 13, 20% [lines of one column]

For part of its entries the source gives two or more results. They are shown here; other results are not. There may be further records. Results that share an entry read as repeated measurements on other runs, samples or individuals; a mean can stand among them.
